Data as given in the BET-seq Pho4 binding data (Le et al. 2018).
This is one part of the list. The energies were worked out here from pooled read counts, against the library average; single values are noisy.

Each sequence was assayed against T1, Pho4 (S. cerevisiae) (UniProt P07270) (assay: relative binding free energy (BET-seq); higher = weaker binding). Conditions: reference: library average.
T1 sequence: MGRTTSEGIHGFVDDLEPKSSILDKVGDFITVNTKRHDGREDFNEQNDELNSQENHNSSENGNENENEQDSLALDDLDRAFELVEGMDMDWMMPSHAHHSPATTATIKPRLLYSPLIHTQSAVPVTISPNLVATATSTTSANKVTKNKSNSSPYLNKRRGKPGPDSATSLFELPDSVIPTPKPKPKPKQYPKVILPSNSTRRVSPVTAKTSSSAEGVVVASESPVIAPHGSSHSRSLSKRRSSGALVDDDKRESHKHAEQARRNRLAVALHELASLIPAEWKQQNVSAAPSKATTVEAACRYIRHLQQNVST

Sequence	relative binding free energy [kcal/mol]
TTTTACACGTGGTATC	0.02
AAGCTCACGTGAATGT	0.49
TAGTTCACGTGTGGAT	0.33
AGTGCCACGTGGTGTT	-0.22
TGGGGCACGTGGTCTT	-0.23
TTGGTCACGTGCAATA	0.2
TGCGTCACGTGGGGGC	0.01
GTTATCACGTGTAGCG	0.3
TATTGCACGTGAATGA	0.19
TCAAGCACGTGTGAGG	0
GTTGACACGTGCGTTT	-0.01
GAGTCCACGTGTGATG	0.35
CGGTACACGTGGTGAT	0.01
TTATTCACGTGTTTGT	0.25
GCATTCACGTGTTGGG	0.29
CATTTCACGTGTTGAG	0.35
CTTGACACGTGTGGGG	0.06
TTAATCACGTGGTACG	0.13
TGAATCACGTGAGGTG	0.32
TAAGTCACGTGTAAAT	0.27
TTTTACACGTGCGTTC	0.09
TGATGCACGTGTGCAT	-0.07
TGGTACACGTGAATAT	0.27
TCCTTCACGTGTGGGT	0.27
AGTGCCACGTGTGATA	-0.02

Sequence	relative binding free energy [kcal/mol]
GTTGGCACGTGATAAT	0.04
GCGTTCACGTGGTAGG	0.21
AAGTGCACGTGCTGCG	-0.05
ATCTTCACGTGATGTG	0.46
TCGGACACGTGGAGGC	0.1
TTAGTCACGTGGAGGA	0.19
GCTGTCACGTGGTAGT	0.01
TCAGGCACGTGGTGGA	-0.17
GATTACACGTGGCGGA	0.29
TATTACACGTGGAGTA	0.27
CGGCTCACGTGTTTGG	0.11
TAACTCACGTGTAGTG	0.16
TTAGGCACGTGTCAAT	-0.12
CCTGACACGTGTGGGG	0.05
AGATGCACGTGATATT	0.17
ATTTTCACGTGCTGAT	0.13
GGTGTCACGTGGTACG	-0.02
TCTAACACGTGGTGTG	-0.1
GAGAACACGTGGTGGT	0.05
CAAGTCACGTGAGGGT	0.39
TGTGCCACGTGGTTTT	-0.11
TCATTCACGTGAGGGA	0.35
CTGTTCACGTGTTAAG	0.14
GTGTACACGTGTCAGT	-0.09
GCGTGCACGTGAGGCG	0.22

Sequence	relative binding free energy [kcal/mol]
AGAATCACGTGTGCGG	0.2
GTAGTCACGTGGGCTA	0.06
AGTGCCACGTGCTGGG	-0.12
CGGTGCACGTGAGCGA	0.26
TGCGACACGTGATATG	0.15
GGGCGCACGTGTTGCT	-0.09
TTGAGCACGTGGTGGT	-0.12
AGGGACACGTGTTGTT	0.01
GAGGTCACGTGGCAGG	0.14
ACGGTCACGTGGGATA	0.06
GGGGGCACGTGAGTTG	0.13
ATTGCCACGTGGGAAT	-0.1
CCTTGCACGTGGGGTG	-0.28
AGGTACACGTGAATAT	0.37
ACGAGCACGTGCTGGG	0.02
GCGGTCACGTGTTGAG	0.14
ATGAGCACGTGGAGAT	-0.14
GGTGACACGTGATATT	0.2
TTTGACACGTGCATGT	-0.04
AAGGCCACGTGGGTGG	-0.34
TCTGGCACGTGTTAGG	-0.05
AATGGCACGTGTGCGG	-0.11
TAGATCACGTGTTGTA	0.05
AATGTCACGTGATTTG	0.24
TGTATCACGTGCGTTC	0.08

Sequence	relative binding free energy [kcal/mol]
TTGGGCACGTGACGTA	-0.05
TTAATCACGTGGCTGA	0.15
TTGGTCACGTGGAATC	0.27
CCGTTCACGTGAGGGG	0.39
TCGGTCACGTGATGAG	0.23
AATTACACGTGGATGT	0.09
GGGTGCACGTGGGTTG	-0.14
TTTTGCACGTGTAGAT	0.19
TTGAACACGTGAATAT	0.24
GTTTGCACGTGGGTAC	-0.09
AATAACACGTGTTGGA	-0.09
TATAGCACGTGTAATT	0.05
CAGAGCACGTGTTTGG	0.02
GTTTACACGTGTTTAA	0.26
TTTAGCACGTGTCTAG	-0.21
TGGTGCACGTGTAATC	0.15
TGTATCACGTGCAGTG	0.14
ATTCGCACGTGATGTG	0.14
TGGTGCACGTGAAACG	0.07
AGTGACACGTGAGTGA	0.13
TTGTTCACGTGTCATT	0.22
GCGAACACGTGTGTGT	-0.03
CGAGACACGTGGGTGG	-0.11
GACGTCACGTGGTCGT	0.1
TAGGGCACGTGGCTCG	-0.12

Sequence	relative binding free energy [kcal/mol]
GGTAACACGTGGATGT	-0.01
CGTTGCACGTGTTGGG	0.06
TTAGACACGTGAGTAG	0.12
GTACGCACGTGTAGTG	0.03
TATTGCACGTGGTAGA	-0.03
ATTGACACGTGTATTA	0.15
TTGAGCACGTGTGGAT	0.02
TTAAGCACGTGAGGGC	0.18
TCTGGCACGTGTGATT	0.16
GCAAACACGTGTGGTG	0.07
GGTAACACGTGGATTG	-0.12
AGTAGCACGTGATGCG	0.16
GTTGGCACGTGTCTAA	0.17
GGTTTCACGTGAACGT	0.39
GTAGACACGTGAGAGG	0.32
AATGACACGTGAGTAT	0.33
GGTGTCACGTGAGCGT	0.26
TGGCGCACGTGGGGGC	-0.13
TTAGTCACGTGTAGAT	0.3
TGAAACACGTGGGATG	-0.14
GAAATCACGTGGATGT	0.2
TATGTCACGTGCAGGA	0.11
CTGTACACGTGTGAGT	0.1
TGTTACACGTGACGGT	0.04
TTGGTCACGTGACAGT	0.27

Sequence	relative binding free energy [kcal/mol]
TAGAGCACGTGAGGTG	0.16
GGACGCACGTGTTGGT	-0.14
GGGAGCACGTGTTTGC	-0.13
TGGTCCACGTGTAGTT	0.12
AGCTTCACGTGGGGTG	0.12
TATCACACGTGGTAGG	-0.05
GAATGCACGTGGCGTG	-0.03
GATAACACGTGTTTTA	0.16
TTTTGCACGTGTACTG	0.09
TCTTTCACGTGTCTAT	0.36
TTGTTCACGTGACGCT	0.26
GAGGTCACGTGCAGTG	0.18
TACAACACGTGGGGGG	-0.14
CAGTGCACGTGGGTGA	-0.12
GGTTGCACGTGGCGGA	0.01
TGTTACACGTGCGTCG	0.04
TTGGTCACGTGGAGTG	0.13
TCTGGCACGTGTCGTG	-0.14
TATATCACGTGACAGG	0.39
CTGTGCACGTGCTTTT	-0.11
TGGATCACGTGTAGGC	0.22
